Laboratory results: the supplement of paper PMC4723716
Over roughly 3,600 compounds, “viability index relative to DMSO control” has its median near 0.81; the lowest 2% begin near 0.13. The list shows a part of the results.

Test system: Plasmodium falciparum NF54 stage V gametocytes
Assay: viability index relative to DMSO control (fraction); higher = less gametocyte killing
Settings: 1.25 µM, incubation time: 72 h
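Further: 384-well serum-free SaLSSA: MitoTracker Red CMXRos staining with saponin lysis, high-content imaging, treated-well particle count divided by plate-mean count of DMSO wells.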

Compared with CN(C)c1ccc(C=CC=Cc2cc[n+](C)cc2)cc1, Brc1ccc(C=Cc2cc[n+](Cc3ccccc3)cc2)cc1 is lower in viability index: 0.971 for the first, 0.398 for the second.

Going from N#CC(=Cc1ccc(Sc2ccccc2)o1)c1nc2ccccc2[nH]1 to O=C(Nc1cccc(-c2nc3ccccc3[nH]2)c1)c1cc(=O)c2ccccc2o1, the viability index falls from 0.776 to 0.397.

First: O=C(O)c1ccc(S(=O)(=O)c2ccc3c(c2)C(=O)N(c2ccc(Sc4ccc([N+](=O)[O-])cc4)cc2)C3=O)cc1
Second: CSc1c(C(=O)Nc2ccc(Br)cc2)ccc2c1C(=O)c1ccccc1C2=O
The viability index of the first is lower: 0.887 for the first, 1.12 for the second.

First: O=C(CCl)Nc1ccc(N2CCCCC2)cc1
Second: Cc1ccc(N2C(=O)CC(NCCCN3CCOCC3)C2=O)cc1 (configuration not stated)
The viability index of the first is lower: 0.692 for the first, 1.07 for the second.

Going from CC(=O)OCN1C(=O)N(COC(C)=O)C2C1N(COC(C)=O)C(=O)N2COC(C)=O (configuration not stated) to COc1ccc(C2C(C(C)=O)=C(O)C(=O)N2CCCn2ccnc2)c(OC)c1 (configuration not stated), the viability index falls from 1.03 to 0.728.

First: O=C(NCc1ccccc1)C(c1ccc(F)cc1)N(Cc1ccco1)C(=O)c1cnccn1 (configuration not stated)
Second: Cc1ccc(-n2c(SCc3ccc(F)cc3)nnc2C(Cc2ccccc2)NC(=O)NC(C)(C)C)cc1 (configuration not stated)
The viability index of the first is higher: 0.72 for the first, 0.649 for the second.

Going from CC1=CC(=Cc2sc3ccccc3[n+]2C)C=C(C)O1 to CCN1C(=Cc2sc3ccc(OC)cc3[n+]2CC)C=Cc2ccccc21, the viability index falls from 0.914 to 0.456.

Going from O=C1NC(=O)C(Cc2ccc(S(=O)(=O)N3CCN(c4ccccc4)CC3)cc2)S1 (configuration not stated) to CCCCOc1ccc(N(C(C)=O)C2=C(N3CCOCC3)C(=O)c3ccccc3C2=O)cc1, the viability index falls from 1.01 to 0.181.

Compared with O=C1Nc2ccccc2C12Nc1ccccc1-c1nc3ccccc3n12 (configuration not stated), Cc1c(NC(=O)C2c3ccccc3C(=O)N3CCc4ccccc4C23)cccc1[N+](=O)[O-] (configuration not stated) is higher in viability index: 0.861 for the first, 0.892 for the second.

Going from CCOC(=O)C1=C(C)NC2=C(C(=O)CC(c3ccc(OC)c(OC)c3)C2)C1c1ccc(Cl)cc1Cl (configuration not stated) to COC(=O)C1=C(C)NC2=C(C(=O)CC(c3ccc(Cl)cc3)C2)C1c1ccc(F)cc1 (configuration not stated), the viability index rises from 0.328 to 0.992.

Compared with Fc1ccc(-c2c[n+](-c3ccccc3)c3n2CCS3)cc1, Clc1ccc(C[n+]2cc(-c3ccccc3)n3c2CCC3)cc1Cl is lower in viability index: 0.967 for the first, 0.834 for the second.

First: CN(Cc1ccccc1)CC(O)COc1ccc(CNCCCN2CCCC2)cc1 (configuration not stated)
Second: CCN(CC)c1ccc(C2N(Cc3ccccc3)CCN2Cc2ccccc2)c(O)c1
The viability index of the first is higher: 0.827 for the first, 0.641 for the second.

Going from COc1ccc(-n2nc3c(c2NC(=O)C=Cc2cc(OC)c(OC)c(OC)c2)CSC3)cc1 to COc1cc2c(-c3cc(Br)ccc3O)nc3c(c(Cc4ccccc4)nn3-c3ccccc3)c2cc1OC, the viability index falls from 1.11 to 0.595.

Compared with NC1=NC(c2ccccc2)N(c2ccccc2)C(N)=N1 (configuration not stated), c1ccc(CSc2nnc3c4ccccc4nc-3[nH]2)cc1 is lower in viability index: 1.12 for the first, 0.859 for the second.

Compared with CCOC(=O)c1ccc(NCc2c(C)[nH]c(C(=O)OCC)c2C)cc1, CCOC(=O)c1sc(NC(=O)CSc2nnc(CNC(=O)c3ccco3)n2-c2ccc(F)cc2)c(C(=O)OCC)c1C is lower in viability index: 0.767 for the first, 0.668 for the second.

First: Cc1ccccc1OCc1nnc(SCC(=O)Nc2ccc([N+](=O)[O-])cc2)n1C
Second: Cc1cccnc1NC(c1ccc([N+](=O)[O-])cc1)c1ccc2cccnc2c1O (configuration not stated)
The viability index of the first is higher: 1.34 for the first, 0.88 for the second.

First: C#CC(C)(C)NC(=O)c1ccc(-c2ccc(CC)cc2)cc1
Second: CCOc1ccccc1NC(=O)C1C(c2ccccc2)=C1c1ccccc1
The viability index of the first is lower: 0.548 for the first, 1.28 for the second.

First: CCNc1nc(NC(C)C)nc(NC(N)NOC)n1 (configuration not stated)
Second: CCCNc1nc(OC(C(F)(F)F)C(F)(F)F)nc(OC(C(F)(F)F)C(F)(F)F)n1
The viability index of the first is higher: 0.817 for the first, 0.781 for the second.

Going from COc1cc2ccccc2cc1C(=O)NCCOC12CC3CC(CC(C3)C1)C2 to COc1ccccc1N1CCN(Cc2cc(C(C)C)c(C)cc2O)CC1, the viability index falls from 0.755 to 0.528.

First: C=CCSc1ncc(-c2ccc(Cl)cc2)n1C
Second: Clc1ccc(NCn2nnc3ccccc32)nc1
The viability index of the first is higher: 0.793 for the first, 0.741 for the second.

Compared with CCOc1ccc(C(=O)Cn2ccc(=NCc3ccccc3)cc2)cc1[N+](=O)[O-], CCCCCCOc1ccc(C(C)=NNC2=NCCN2)cc1[N+](=O)[O-] is lower in viability index: 0.748 for the first, 0.525 for the second.

Going from CN1CCN(c2nc(NN=Cc3cc(I)ccc3O)nc(Nc3ccc([N+](=O)[O-])cc3)n2)CC1 to CN1CCc2c(sc3nc(SCc4ccc(Cl)cc4)n(-c4cccc(Cl)c4)c(=O)c23)C1, the viability index rises from 0.668 to 1.15.

First: CCOC(=O)C(=O)N1c2ccc(C)cc2-c2c(ssc2=S)C1(C)C
Second: CCOC(=O)c1c(C)n(-c2ccccc2)c2ccc(OC(=O)C3CC3)cc12
The viability index of the first is lower: 0.808 for the first, 0.97 for the second.

Compared with O=C1CC(C(=O)N2CCC(c3nc(-c4cccnc4)ncc3-c3ccccc3)CC2)c2ccccc21 (configuration not stated), Cc1ccc(S(=O)(=O)Nc2nc3n(n2)C(c2ccccc2)C=C(c2ccccc2)N3)cc1 (configuration not stated) is lower in viability index: 0.99 for the first, 0.799 for the second.

First: CC[n+]1c(C=CN(C)c2ccccc2)oc(-c2ccccc2)c1-c1ccccc1
Second: CCOc1ccc(Nc2cc(C)nc3c(C)cc(C)cc23)cc1
The viability index of the first is lower: 0.226 for the first, 0.853 for the second.

First: O=C(NN=CC1CC=CCC1)c1ccc([N+](=O)[O-])cc1Cl (configuration not stated)
Second: O=C(NCC1CCCO1)c1ccc([N+](=O)[O-])cc1Cl (configuration not stated)
The viability index of the first is lower: 0.963 for the first, 1.22 for the second.

First: COCCn1c(SCC(=O)c2ccc(C)cc2C)nnc1-c1ccco1
Second: CCCSc1nc(N)c(NC(=O)c2ccco2)c(=O)[nH]1
The viability index of the first is higher: 1.12 for the first, 0.86 for the second.

First: O=C(N1CCN(c2ccc(C(F)(F)F)cc2[N+](=O)[O-])CC1)C(Cl)(Cl)Cl
Second: O=C(NC1CC1)C1CCN(c2cccc3c2C(=O)N(C2CCCCCCC2)C3=O)CC1
The viability index of the first is lower: 0.769 for the first, 0.815 for the second.

Compound CC(NC(=O)Cc1ccc(F)cc1)C(c1cccs1)N1CCOCC1 (configuration not stated) has a viability index of 0.935.
